{"source": "ChEMBL document CHEMBL4888484", "about": "“Replenishing the malaria drug discovery pipeline: Screening and hit evaluation of the MMV Hit Generation Library 1 (HGL1) against asexual blood stage Plasmodium falciparum ,using a nano luciferase reporter read-out” (2022)", "note": "The campaign covered roughly 150,000 compounds. About 540 (0.36%) showed an effect of 50% or more. The list shows a part of the results.", "data": [{"system": "Plasmodium falciparum", "test": "Primary screen in NF54 nanoGlo assay, in single point, at 2uM, 72h; a lower Z score goes with more inhibition", "format": "functional, Erythrocyte", "settings": "timepoint 72 hour", "units": {"% Inhibition": "%"}, "values": [{"smiles": "N#Cc1c(NC(=O)c2cc(S(=O)(=O)N3CCCCC3)ccc2Cl)sc2c1CCC2", "% Inhibition": -45, "Z score": 5.24}, {"smiles": "Cc1ccn(CCc2nc(C)nn2-c2cccc(C(=O)O)c2)n1", "% Inhibition": -4, "Z score": 0.5}, {"smiles": "NC(=O)[C@@H](F)C1CCN(Cc2cc(Cl)sc2Cl)CC1", "% Inhibition": -5, "Z score": 0.71}, {"smiles": "N#Cc1cccc(-c2c(-c3ccccc3)ncn2Cc2ccc(CO)cc2)c1", "% Inhibition": 13, "Z score": -1.84}, {"smiles": "CCc1cccc(NC(=O)CNC2(CC(=O)OC)CCOCC2)c1", "% Inhibition": -5, "Z score": 0.62}, {"smiles": "COc1ccccc1N1CCN(C(=O)c2cc(Cl)sc2Cl)CC1", "% Inhibition": 4, "Z score": -0.69}, {"smiles": "Cc1cc(-c2cc([C@H]3CCN(C(=O)C4CC(=O)C4)C3)ccn2)ccc1F", "% Inhibition": -7, "Z score": 1.32}, {"smiles": "O=C(NC1(c2noc(CC3CCCC3)n2)CCCCCC1)c1cccc[n+]1[O-]", "% Inhibition": -11, "Z score": 1.37}, {"smiles": "Cc1nc([C@H](C)NC(=O)CCN2CCCC2)n[nH]1", "% Inhibition": 1, "Z score": -0.21}, {"smiles": "N#CCN(CC#N)C(=O)c1ccc(-n2ncc3ccccc32)c(Cl)c1", "% Inhibition": -30, "Z score": 3.51}, {"smiles": "CS(=O)(=O)N[C@@H]1COCC[C@@H]1Oc1ccc(F)cc1", "% Inhibition": -17, "Z score": 1.54}, {"smiles": "CCN(CC)c1ccc(C(=O)n2nc(C(F)(F)F)nc2N)cn1", "% Inhibition": 2, "Z score": -0.39}, {"smiles": "COC(=O)C1=C(C(=O)OC)SC(=C2C(=S)C(C)(C)N(C(=O)Cc3ccccc3)c3ccc(OC)cc32)S1", "% Inhibition": 0, "Z score": -0.01}, {"smiles": "CN(C)C[C@H]1CN(CC(=O)NCCOc2ccccc2)CCO1", "% Inhibition": -8, "Z score": 1.18}, {"smiles": "CO[C@@H](C)CC(=O)N1CCc2ncccc21", "% Inhibition": -6, "Z score": 1.01}, {"smiles": "NC(=NC[C@@H]1CC=CCC1)N1CCCCC1", "% Inhibition": -8, "Z score": 1.1}, {"smiles": "CC(C)N1CC[C@H](NCCC(C)(C)C)C1=O", "% Inhibition": -13, "Z score": 1.63}, {"smiles": "CCn1nc(COc2ccccc2OC)nc1[C@H](C)N1CCN(C)CC1", "% Inhibition": -3, "Z score": 0.53}, {"smiles": "CCOC(=O)c1nc[nH]c1-n1nc(-c2ccc(OC)cc2)cc1C(F)(F)F", "% Inhibition": -32, "Z score": 3.76}, {"smiles": "NC(=O)Cc1nc(CC(F)(F)F)n(C2CCCCC2)n1", "% Inhibition": 0, "Z score": 0.02}, {"smiles": "CCOc1cc(C(=O)N(C)C)ccc1NCc1cc(C)oc1C", "% Inhibition": -2, "Z score": 0.17}, {"smiles": "Cc1cc2ncn([C@@H](C)C(=O)N3CCCCCC3)c2cc1C", "% Inhibition": -8, "Z score": 1.3}, {"smiles": "CCC1=NO[C@@H](CN2CCN(CC)C(C)(C)C2)C1", "% Inhibition": -7, "Z score": 1.26}, {"smiles": "COc1ccc(CCC(=O)N[C@H]2CCOC[C@@H]2O)cc1", "% Inhibition": -18, "Z score": 3.34}, {"smiles": "CC[C@@]1(C)CCCN(C(=O)CNS(=O)(=O)CC)CC1", "% Inhibition": -5, "Z score": 0.42}, {"smiles": "COc1cc(C(=O)Nc2ccc(-c3ccc(N4CCCCC4)nn3)cc2)cc(OC)c1OC", "% Inhibition": 25, "Z score": -3.14}, {"smiles": "CC[C@H](NC1CCN(c2nnc(-c3ccccc3)s2)CC1)c1ccnn1C", "% Inhibition": -15, "Z score": 1.46}, {"smiles": "CCc1nccn1CCc1nc(C(C)C)nn1-c1ccncc1C", "% Inhibition": -15, "Z score": 2.3}, {"smiles": "CC(C)(C)c1ccc(OCCn2c3ccccc3n3c(=O)c(CCC(=O)O)nnc23)cc1", "% Inhibition": -8, "Z score": 1.06}, {"smiles": "Cc1cccc(CN2CCCCCNC(=O)[C@@H]3CCC[C@@H]32)c1", "% Inhibition": -3, "Z score": 0.35}, {"smiles": "COc1ccc(C(=O)N2CC(O)(C(F)F)C2)cn1", "% Inhibition": -9, "Z score": 1.39}, {"smiles": "COCc1cn([C@@H]2CC[C@H]3CCOc4ccccc4C(=O)N4CCN(C(C)C)C[C@H]4C(=O)NC[C@H]2O3)nn1", "% Inhibition": -9, "Z score": 1.17}, {"smiles": "CCN(Cc1cnn(C)c1)c1ccc(C#N)nc1", "% Inhibition": 0, "Z score": 0.05}, {"smiles": "Cn1nc2c(c1CNC(=O)c1cncc(Br)c1)CCC2", "% Inhibition": -4, "Z score": 0.57}, {"smiles": "Cc1cccc(NC(=O)c2c(C)sc3ncnc(N4CCCCC4)c23)c1", "% Inhibition": 41, "Z score": -5.91}, {"smiles": "COc1ccc(S(=O)(=O)c2c(C)c(C)n(Cc3ccco3)c2NC(=O)C(C)C)cc1", "% Inhibition": -13, "Z score": 1.68}, {"smiles": "Cc1nc(-c2ccncc2)nc(NCCN2C(=O)Cc3ccccc32)c1C", "% Inhibition": -6, "Z score": 1.14}, {"smiles": "CCC(C)(C)c1ccc(OCCCCNC(=O)c2cc(-c3ccccc3F)nn2-c2ccc(C)cc2C)c(C(C)(C)CC)c1", "% Inhibition": -14, "Z score": 1.63}, {"smiles": "Cc1nc(-c2ccc(CNC(=O)c3cccc(CCC(C)(C)O)c3)cc2)no1", "% Inhibition": -2, "Z score": 0.25}, {"smiles": "O=S(=O)(N[C@@H](CCO)c1cccs1)c1cc2cc(Cl)ccc2s1", "% Inhibition": 0, "Z score": 0.05}, {"smiles": "O=C(c1cnn[nH]1)N1CCC[C@H](c2nc(-c3cccnc3)no2)C1", "% Inhibition": -15, "Z score": 3.14}, {"smiles": "Cc1nn(Cc2ccccc2)c2c1C(c1cccc(Cl)c1Cl)c1c(C)nn(Cc3ccccc3)c1O2", "% Inhibition": 42, "Z score": -6.02}]}]}
